# Measurements: the supplement of paper PMC7335073
# Whole data set: some 4,100 sequences, median “relative CpG methylation activity (normalised to average over all NNNCGNNN flanks)” near 0.87, cut for the highest 2% near 2.4. The list shows a part of the results.
# Target: DNMT3A catalytic domain (mouse) (UniProt O88508)
# Experiment: relative CpG methylation activity (normalised to average over all NNNCGNNN flanks) (relative (1 = mean)); higher = more methylation of the central CpG
# Settings: system: in vitro, murine catalytic domain; CpG state: hemimethylated substrate pool; residues: 608-908
# Procedure, shortened: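 Murine DNMT3A or DNMT3B catalytic domain methylated pooled dsDNA substrates, each carrying a central CpG within 10 random flanking nucleotides, with 0.8 mM S-adenosyl-L-methionine in HEPES pH 7.5 buffer at 37 °C for 60 min. Proteinase K treatment, BsaI-HFv2 digestion, hairpin ligation, bisulfite conversion and two-step PCR preceded Illumina sequencing. Relative methylation activity is the average methylation of a flanking context divided by the mean across all contexts, where a context spans three bases on each side, and every experiment was repeated twice independently.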
row,Sequence,relative CpG methylation activity
1,TGTCGCAC,0.888
2,AAGCGCAT,0.582
3,CCTCGAGA,0.73
4,ACACGTAG,0.863
5,GCACGCAC,1.22
6,TCACGCGA,0.929
7,TCTCGGCA,0.913
8,CGGCGTTC,0.663
9,CCACGAGT,1.26
10,CGCCGGGA,0.437
11,ACGCGCAT,1.07
12,GTACGAAC,1.99
13,CACCGAGT,0.933
14,TCCCGAAT,0.738
15,ATTCGAAC,1.19
16,TCTCGCTC,1.84
17,ACGCGAAA,0.833
18,TTGCGGCT,1.72
19,GCCCGTGG,0.141
20,TAACGAGT,0.643
21,GCACGCTA,1.64
22,TCACGGCA,1.27
23,CCGCGATC,0.985
24,CGACGGGC,0.798
25,GAACGTCG,1.25

row,Sequence,relative CpG methylation activity
1,AATCGGGC,0.318
2,TTACGCGC,2.44
3,ACACGAGC,1.54
4,TAGCGCTG,0.34
5,CCTCGTAT,0.651
6,ACTCGTTT,0.982
7,AAGCGTTG,0.206
8,TCTCGAAC,1.13
9,CAGCGTAG,0.246
10,CTCCGGTC,1.8
11,CATCGAGC,0.882
12,TCACGGTA,1.29
13,CGGCGCGC,0.516
14,CTTCGGCT,0.976
15,AGACGGTC,1.15
16,ATACGTTT,1.52
17,ATGCGCGG,0.425
18,CAACGTGA,0.375
19,CGTCGTAT,0.388
20,CCGCGCCG,1.13
21,ACACGAGA,1.43
22,TTACGCCA,2.33
23,GCACGTCC,1.91
24,ACCCGGGC,0.801
25,GGCCGTAG,0.263

row,Sequence,relative CpG methylation activity
1,GAGCGTCA,1.14
2,GAGCGAAC,1.06
3,AGCCGAGC,1.26
4,TGTCGAGA,0.637
5,TGGCGCAA,0.281
6,TAACGGTG,0.512
7,AGTCGACG,0.282
8,GTTCGGAT,0.575
9,GGCCGACA,0.948
10,CCTCGCGG,0.283
11,CATCGCGG,0.315
12,TCGCGCTC,1.88
13,ATACGTTG,1.23
14,CGGCGGCA,0.896
15,TATCGTAC,0.576
16,AACCGCTA,1.29
17,TTGCGTGA,0.64
18,CCTCGTAA,1.17
19,CGACGCAA,0.699
20,TGTCGCCT,1.47
21,ATTCGGTT,0.706
22,CCGCGCGG,0.577
23,CGCCGTAG,0.323
24,CATCGAAT,0.533
25,TCCCGCGA,0.863

row,Sequence,relative CpG methylation activity
1,GCCCGCTA,1.3
2,TCACGGTT,0.763
3,TCTCGCTG,1.57
4,GACCGTCA,1.16
5,AGCCGTTT,0.42
6,CCTCGAGC,1.18
7,TTGCGTTT,1.35
8,CAACGTTG,0.316
9,TTGCGAGT,1.34
10,TTTCGGAG,0.481
11,AAGCGCAC,0.756
12,TACCGATA,0.709
13,ATGCGGGT,0.741
14,GGTCGCGG,0.102
15,GTTCGGGT,0.638
16,GTACGGTC,1.65
17,ACGCGAAG,0.553
18,CTGCGCTG,1.56
19,TTTCGTCT,1.99
20,CCTCGACG,0.719
21,CAGCGGTA,0.346
22,TATCGAAC,0.633
23,TGGCGATC,0.882
24,ATACGAAA,2.06
25,GTGCGTAA,1.42

row,Sequence,relative CpG methylation activity
1,CTTCGCAC,1.84
2,TCGCGTAG,0.412
3,GACCGCCA,1.34
4,TAACGCTA,0.705
5,GTTCGAGC,1.09
6,CCGCGCAA,1.17
7,CTACGAGC,2.44
8,GATCGAGT,0.285
9,CGACGCTC,1.38
10,ATACGCAG,1.52
11,TGGCGGGA,0.3
12,ATTCGTTC,1.08
13,CTCCGAGA,1.34
14,CAGCGGAT,0.29
15,GCACGGAC,1.33
16,TCACGATT,0.819
17,ATACGCCC,2.85
18,ATGCGGTA,1.15
19,CAGCGGTC,0.48
20,GCCCGTAT,0.701
21,CGACGCTG,0.919
22,TGCCGTTT,0.636
23,CGTCGAGT,0.421
24,AGCCGGTG,0.269
25,TTTCGGGG,0.303

row,Sequence,relative CpG methylation activity
1,CGTCGAAC,0.591
2,TTGCGCCG,1.96
3,AAGCGTGA,0.158
4,CCTCGACC,1.37
5,GAGCGTCG,0.833
6,ACGCGTAT,0.711
7,TATCGATA,0.599
8,GATCGAGC,0.679
9,AACCGTGT,0.399
10,CCGCGTAA,1.18
11,ATGCGCTA,1.77
12,GGCCGATC,1.24
13,TTACGGAA,1.89
14,CTACGGCT,2.07
15,CTACGCAT,1.97
16,AAACGTTA,0.554
17,GACCGAAG,0.897
18,CAGCGTTG,0.138
19,AATCGGTG,0.236
20,CGGCGACA,0.647
21,ACCCGATG,0.565
22,GCACGTGC,0.642
23,CACCGCAT,0.731
24,TTCCGCGC,2.03
25,ATACGTCT,2.22

row,Sequence,relative CpG methylation activity
1,GCCCGACC,1.64
2,CTGCGTTG,0.708
3,CGGCGCCC,1.28
4,TTTCGGTC,1.6
5,GACCGGGG,0.227
6,CCACGTAG,0.821
7,GCGCGTCC,1.22
8,TGTCGTGC,0.188
9,CAGCGGCC,0.844
10,CACCGTGT,0.273
11,AGCCGTAG,0.455
12,GGCCGGCA,0.941
13,CCACGACG,1.18
14,CTTCGTTA,0.946
15,GTACGGAG,0.944
16,CAGCGCCA,0.766
17,ATTCGCCG,1.43
18,GAACGCCC,1.6
19,GACCGTAA,1.06
20,AGACGGAC,1.05
21,GGCCGGAA,0.714
22,ATTCGGGT,0.342
